# Test results taken from paper PMC4336329 (PLoS ONE, 2015).
# The campaign covered roughly 310,000 compounds. About 14,000 (4.5%) showed an effect of 50% or more. Effects have a minus sign here. The list shows a part of the results.
# Target: human ether-à-go-go-related gene (hERG) potassium channel (human, UniProt Q12809)
# Experiment: primary screen, population patch clamp on CHO cells stably expressing hERG
# 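Further: peak tail current of the secondary pulse compared with the same well before compound.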
# Sequence of human ether-à-go-go-related gene (hERG) potassium channel (Q12809 whole entry, looked up): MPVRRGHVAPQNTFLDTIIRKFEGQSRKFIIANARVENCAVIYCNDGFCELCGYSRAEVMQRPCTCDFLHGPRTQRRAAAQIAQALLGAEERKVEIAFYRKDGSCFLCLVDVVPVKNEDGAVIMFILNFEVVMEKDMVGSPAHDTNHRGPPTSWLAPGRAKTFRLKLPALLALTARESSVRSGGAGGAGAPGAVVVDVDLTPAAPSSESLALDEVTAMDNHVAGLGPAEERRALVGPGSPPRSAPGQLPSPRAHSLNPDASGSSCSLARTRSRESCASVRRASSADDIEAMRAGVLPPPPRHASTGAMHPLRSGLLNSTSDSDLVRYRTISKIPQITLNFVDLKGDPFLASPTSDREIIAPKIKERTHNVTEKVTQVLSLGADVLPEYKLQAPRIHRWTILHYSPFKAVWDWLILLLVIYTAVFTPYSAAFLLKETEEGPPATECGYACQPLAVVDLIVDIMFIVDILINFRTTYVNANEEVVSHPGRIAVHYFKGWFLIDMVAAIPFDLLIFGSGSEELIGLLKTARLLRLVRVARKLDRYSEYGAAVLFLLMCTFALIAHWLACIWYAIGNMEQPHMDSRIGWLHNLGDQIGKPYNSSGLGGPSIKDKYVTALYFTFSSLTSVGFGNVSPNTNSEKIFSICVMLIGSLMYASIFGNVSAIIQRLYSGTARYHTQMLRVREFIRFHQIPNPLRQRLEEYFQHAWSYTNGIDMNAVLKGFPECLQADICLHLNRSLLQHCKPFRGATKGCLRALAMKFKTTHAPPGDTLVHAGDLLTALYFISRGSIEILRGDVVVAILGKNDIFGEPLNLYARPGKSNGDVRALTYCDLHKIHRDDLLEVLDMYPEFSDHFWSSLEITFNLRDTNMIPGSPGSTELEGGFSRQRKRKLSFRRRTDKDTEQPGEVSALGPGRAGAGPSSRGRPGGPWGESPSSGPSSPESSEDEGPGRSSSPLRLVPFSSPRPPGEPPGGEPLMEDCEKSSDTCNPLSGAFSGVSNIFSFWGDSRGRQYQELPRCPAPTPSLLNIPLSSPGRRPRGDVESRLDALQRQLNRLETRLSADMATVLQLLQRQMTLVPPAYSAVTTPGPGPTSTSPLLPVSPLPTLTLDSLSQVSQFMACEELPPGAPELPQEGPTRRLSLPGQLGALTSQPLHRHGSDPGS
row,SMILES,"hERG current change (%, negative = inhibition) at 10uM [%]"
1,COc1cccc(N2C(=O)Nc3ccccc3C2(O)C(=O)NCc2ccc3c(c2)OCO3)c1 (centres unmarked),-10
2,O=C(Nc1ccc(-c2cn3ccccc3n2)cc1)c1ccco1,-11.4
3,O=[N+]([O-])c1ccccc1/C=C/C=N/n1c(-c2ccccc2F)n[nH]c1=S,0.859
4,COc1ccc(NC(=O)CSc2n[nH]c(N)n2)cc1OC,16.1
5,Cc1cccc(CN2CCC(CNC(=O)CSc3cc(=O)n(C)c4cc(Cl)ccc34)CC2)c1,-69.7
6,COC(=O)N1C(=O)[C@](c2ccccc2)(C(C)C)N1C(=O)OC,12.2
7,CN(CCCOc1ccccc1Br)Cc1ccccc1,-22.1
8,CC1CCCCN1CCNc1nc(=S)[nH]c2ccccc12 (centres unmarked),-67.5
9,CCC(=O)N(Cc1ccc2c(c1)OCO2)Cc1cc2cc(OC)ccc2[nH]c1=O,-2.61
10,Cc1ccc(N(C)C(=O)c2cc(S(=O)(=O)N3CCCC3)cn2C)cc1,-7.36
11,Cc1ccc(-c2nc(N3CCOCC3)s[n+]2-c2ccccc2)cc1.[O-][Cl+3]([O-])([O-])[O-],9.31
12,CN(C)CCCNc1ncnc2sc(-c3ccccc3)cc12.O=C(O)C(=O)O,-60.2
13,C=CCN1N=C(c2ccc(NC(=O)c3ccccc3)cc2)CSC1=O,17.5
14,COc1ccc(OC)c(NC(=O)COC(=O)Cc2ccc(Br)cc2)c1,29.5
15,Cc1cccc(C(=O)O/N=C(\N)c2cccc([N+](=O)[O-])c2)c1,-11.4
16,NC(=O)CN1CCN(Cc2ccc3c(c2)OCO3)CC1,30.6
17,COC(=O)c1cc(NC(=O)C23CCC(C)(C(=O)O2)C3(C)C)cc(C(=O)OC)c1 (centres unmarked),-0.126
18,CCc1[nH]c(=S)c(C#N)c(-c2ccccc2)c1C(=O)OC,25.5
19,COCCn1c(SCC(=O)Nc2nnc(C)s2)nnc1-c1ccoc1C,46.2

row,SMILES,"hERG current change (%, negative = inhibition) at 10uM [%]"
1,COc1ccc(Nc2nc(-c3cccs3)nc3ccccc23)c(OC)c1,-2.84
2,COc1cccc(OC)c1C1=CC(=O)C[C@H](c2ccc3c(c2)OCO3)C1,9.99
3,Cc1ccc(Cl)cc1NC(=S)N1CCCCCC1,12.3
4,COc1cc(C(=O)N2CCN(C(=O)Cc3ccccc3)CC2)cc(OC)c1OC,-20.2
5,CC(C)C1NC2(C(=O)c3ccccc3C2=O)C2C(=O)N(c3ccc(F)cc3)C(=O)C12 (centres unmarked),-0.14
6,CCOC(=O)c1c(C(=O)OCC)c(C)n(CCc2ccc(OC)c(OC)c2)c1C,-8.94
7,CC(=O)Nc1ccc2c(c1)ncn2C1CCCCC1,-1.69
8,CCOC(=O)c1cccc(NC(=O)c2cnc3ccccc3n2)c1,-14.1
9,O=C(COc1ncnc2sccc12)NC1CCS(=O)(=O)C1 (centres unmarked),9.65
10,CCOc1ccc(CCNC(=O)C2CC(=O)N(c3ccccc3OCC)C2)cc1OCC (centres unmarked),20.4
11,Cc1c(S(=O)(=O)c2ccccn2)c(N)n(Cc2ccccc2Cl)c1C,21.6
12,CC(C)[C@H](NC(N)=O)C(=O)Nc1cccc(S(=O)(=O)N2CCOCC2)c1,15.8
13,CCCCCC(C)n1[nH]c(=O)c2c(C)cc(C)nc21 (centres unmarked),-31.9
14,COc1cc(/C=C/C(=O)N2CCC=CC2=O)cc(OC)c1OC,10.1
15,CCOC(=O)N/N=C\c1ccc(OC(=O)c2ccco2)cc1,22.5
16,CCCCn1c(N)c(N(CC(C)C)C(=O)c2cc3c(s2)CCCCC3)c(=O)[nH]c1=O,-16.4
17,Cc1cc(NC(=O)COC(=O)c2cc3c(s2)CCC(C)C3)no1 (centres unmarked),-2.09
18,O=C(Nc1cccc(C(F)(F)F)c1)OCc1ccncc1,-26.8
19,Cc1c(CN2CCCC(C(=O)c3cccc(Cl)c3)C2)c(=O)n(-c2ccccc2)n1C (centres unmarked),-24

row,SMILES,"hERG current change (%, negative = inhibition) at 10uM [%]"
1,C[C@H](NC(=O)c1nc[nH]c1C(=O)NCC(=O)OCc1ccccc1)C(=O)OC(C)(C)C,-8.39
2,COc1ccc(NC(=O)CCc2ccccc2)cc1NC(=O)c1ccco1,-26.6
3,Cc1ccsc1/C=N/NC(=O)c1ccncc1,13.2
4,Cc1cc(C)n(-c2nc3nonc3nc2-n2nc(C)cc2C)n1,15.2
5,COc1ccc(C(=O)n2cnc3ccccc32)cc1[N+](=O)[O-],3.44
6,CCN(CC(=O)NC1CCCCCC1)S(=O)(=O)c1ccccc1,-14.7
7,COC(=O)C1=NN(C(C)(C)CC(C)=O)C2C(=O)N(C3CCCCC3)C(=O)C12 (centres unmarked),9.76
8,O=C(CCC1CCCC1)NCc1ccccn1,8.24
9,COC(=O)C(C)(N)Cc1ccc(O)cc1.Cl (centres unmarked),12.3
10,O=C(Nc1ccc(Cl)cc1)C1C2C=CC3(O2)C1C(=O)N(CCCN1CCCCC1)C3C(=O)NC1CCCCC1 (centres unmarked),-5.14
11,O=C(c1cccc(F)c1)N1CCN(C(=O)C(c2ccccc2)c2ccccc2)CC1,-40.4
12,C=CCOC(=O)C1=C[C@@H](c2ccc(C(F)(F)F)cc2)[C@H](CCCO)[C@@H](OCC)O1,-36.6
13,O=C1CCC(CCC(=O)N2CCCC(C(=O)c3ccc4c5c(cccc35)CC4)C2)=NN1 (centres unmarked),-54.4
14,CCC(C)N(C(=O)C(F)(F)F)C(C(=O)NC1CCCCC1)c1ccncc1 (centres unmarked),7.62
15,O=C(O)c1ccc(NC(=O)c2cn(-c3ccccc3)nc2-c2ccc(Br)cc2)cc1,20.4
16,COc1ccc(-n2c(C)nn(CCOc3ccccc3)c2=O)cc1,-8.57
17,CCc1nnc(NC(=O)CSc2nnc(-c3ccoc3C)n2CC(C)C)s1,-1.6
18,CCOc1nsc(OCC)n1,14.1
